# Laboratory results taken from the supplement of paper PMC8728848.
# The other results are listed elsewhere or left out.
# B1: ECA (Erythrina cristagalli), P83410 (protein)
# chain: VETISFSFSEFEPGNDNLTLQGAALITQSGVLQLTKINQNGMPAWDSTGRTLYTKPVHMWDSTTGTVASFETRFSFSIEQPYTRPLPADGLVFFMGPTKSKPAQGYGYLGVFNNSKQDNSYQTLAVEFDTFSNPWDPPQVPHIGIDVNSIRSIKTQPFQLDNGQVANVVIKYDAPSKILHVVLVYPSSGAIYTIAEIVDVKQVLPDWVDVGLSGATGAQRDAAETHDVYSWSFQASLPE
# What was measured:
# Test in all cases: glycan array binding signal (z-score within array); higher = stronger binding
# Details in all cases: glycan notation: IUPAC condensed, linker removed
# [1] = target: Neu5Ac(a2-3)Gal(b1-4)GlcNAc(b1-3)Gal(b1-3)GlcNAc
# Procedure, shortened: (§1)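 Glycan array data came from 3228 arrays in the Consortium for Functional Glycomics database, and only arrays with an available protein sequence were kept. Glycan names were put into IUPAC-condensed notation, and columns mapping to the same glycan were averaged. The binding signal is a within-array Z-score, averaged across arrays of one protein sequence run at different concentrations or buffers and across linkers. A negative Z-score can be read as non-binding.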
# [2] = target: Neu5Ac(a2-3)Gal(b1-4)GlcNAc(b1-3)Gal(b1-4)GlcNAc
# Procedure, shortened: as §1
# [3] = target: Neu5Ac(a2-3)Gal(b1-4)GlcNAc(b1-3)Gal(b1-4)GlcNAc(b1-2)Man(a1-3)[Neu5Ac(a2-3)Gal(b1-4)GlcNAc(b1-3)Gal(b1-4)GlcNAc(b1-2)Man(a1-6)]Man(b1-4)GlcNAc(b1-4)GlcNAc
# Procedure, shortened: as §1
# [4] = target: Neu5Ac(a2-3)Gal(b1-4)GlcNAc(b1-3)Gal(b1-4)GlcNAc(b1-3)Gal(b1-4)GlcNAc
# Procedure, shortened: as §1
# [5] = target: Neu5Ac(a2-3)Gal(b1-4)GlcNAc(b1-3)Gal(b1-4)GlcNAc(b1-3)Gal(b1-4)GlcNAc(b1-2)Man(a1-3)[Neu5Ac(a2-3)Gal(b1-4)GlcNAc(b1-3)Gal(b1-4)GlcNAc(b1-3)Gal(b1-4)GlcNAc(b1-2)Man(a1-6)]GalNAc
# Procedure, shortened: as §1
# [6] = target: Neu5Ac(a2-3)Gal(b1-4)GlcNAc(b1-3)Gal(b1-4)GlcNAc(b1-3)GalNAc
# Procedure, shortened: as §1
# [7] = target: Neu5Ac(a2-3)Gal(b1-4)GlcNAc(b1-3)Gal(b1-4)GlcNAc(b1-3)[Neu5Ac(a2-3)Gal(b1-4)GlcNAc(b1-3)Gal(b1-4)GlcNAc(b1-6)]GalNAc
# Procedure, shortened: as §1
# [8] = target: Neu5Ac(a2-3)Gal(b1-4)GlcNAc(b1-3)Gal(b1-4)GlcNAc(b1-6)[Gal(b1-3)]GalNAc
# Procedure, shortened: as §1
# [9] = target: Neu5Ac(a2-3)Gal(b1-4)GlcNAc(b1-3)Gal(b1-4)[Fuc(a1-3)]GlcNAc
# Procedure, shortened: as §1
# [10] = target: Neu5Ac(a2-3)Gal(b1-4)GlcNAc(b1-3)GalNAc
# Procedure, shortened: as §1
# [11] = target: Neu5Ac(a2-3)Gal(b1-4)GlcNAc(b1-3)[Neu5Ac(a2-3)Gal(b1-4)GlcNAc(b1-6)]GalNAc
# Procedure, shortened: as §1
# [12] = target: Neu5Ac(a2-3)Gal(b1-4)GlcNAc(b1-6)GalNAc
# Procedure, shortened: as §1
# [13] = target: Neu5Ac(a2-3)Gal(b1-4)GlcNAc(b1-6)[Gal(b1-3)]GalNAc
# Procedure, shortened: as §1
# [14] = target: Neu5Ac(a2-3)Gal(b1-4)GlcNAc(b1-6)[Neu5Ac(a2-3)Gal(b1-3)]GalNAc
# Procedure, shortened: as §1
# [15] = target: Neu5Ac(a2-3)Gal(b1-4)GlcNAc6S
# Procedure, shortened: as §1
# [16] = target: Neu5Ac(a2-3)Gal(b1-4)[Fuc(a1-3)]GlcNAc
# Procedure, shortened: as §1
# [17] = target: Neu5Ac(a2-3)Gal(b1-4)[Fuc(a1-3)]GlcNAc(b1-2)Man
# Procedure, shortened: as §1
# [18] = target: Neu5Ac(a2-3)Gal(b1-4)[Fuc(a1-3)]GlcNAc(b1-3)Gal
# Procedure, shortened: as §1
# [19] = target: Neu5Ac(a2-3)Gal(b1-4)[Fuc(a1-3)]GlcNAc(b1-3)Gal(b1-4)GlcNAc
# Procedure, shortened: as §1
# [20] = target: Neu5Ac(a2-3)Gal(b1-4)[Fuc(a1-3)]GlcNAc(b1-3)Gal(b1-4)[Fuc(a1-3)]GlcNAc(b1-3)Gal(b1-4)[Fuc(a1-3)]GlcNAc
# Procedure, shortened: as §1
# [21] = target: Neu5Ac(a2-3)Gal(b1-4)[Fuc(a1-3)]GlcNAc(b1-3)GalNAc
# Procedure, shortened: as §1
# [22] = target: Neu5Ac(a2-3)Gal(b1-4)[Fuc(a1-3)]GlcNAc(b1-6)[Gal(b1-3)]GalNAc
# Procedure, shortened: as §1
# [23] = target: Neu5Ac(a2-3)Gal(b1-4)[Fuc(a1-3)]GlcNAc(b1-6)[Neu5Ac(a2-3)Gal(b1-3)]GalNAc
# Procedure, shortened: as §1
# [24] = target: Neu5Ac(a2-3)Gal(b1-4)[Fuc(a1-3)]GlcNAc6S
# Procedure, shortened: as §1
# [25] = target: Neu5Ac(a2-3)Gal6S(b1-4)GlcNAc
# Procedure, shortened: as §1
# [26] = target: Neu5Ac(a2-3)Gal6S(b1-4)[Fuc(a1-3)]GlcNAc
# Procedure, shortened: as §1
# Neu5Ac(a2-3)GalNAc = target: Neu5Ac(a2-3)GalNAc
# Procedure, shortened: as §1
# [27] = target: Neu5Ac(a2-3)GalNAc(b1-4)GlcNAc
# Procedure, shortened: as §1
# [28] = target: Neu5Ac(a2-3)[GalNAc(b1-4)]Gal(b1-4)Glc
# Procedure, shortened: as §1
# [29] = target: Neu5Ac(a2-3)[GalNAc(b1-4)]Gal(b1-4)GlcNAc
# Procedure, shortened: as §1
# [30] = target: Neu5Ac(a2-3)[GalNAc(b1-4)]Gal(b1-4)GlcNAc(b1-3)GalNAc
# Procedure, shortened: as §1
# [31] = target: Neu5Ac(a2-3)[Neu5Ac(a2-6)]GalNAc
# Procedure, shortened: as §1
# Neu5Ac(a2-6)Gal = target: Neu5Ac(a2-6)Gal
# Procedure, shortened: as §1
# [32] = target: Neu5Ac(a2-6)Gal(b1-3)GlcNAc(b1-3)[Gal(b1-4)GlcNAc(b1-6)]Gal(b1-4)Glc
# Procedure, shortened: as §1
# Neu5Ac(a2-6)Gal(b1-4)Glc = target: Neu5Ac(a2-6)Gal(b1-4)Glc
# Procedure, shortened: as §1
# [33] = target: Neu5Ac(a2-6)Gal(b1-4)GlcNAc
# Procedure, shortened: as §1
# [34] = target: Neu5Ac(a2-6)Gal(b1-4)GlcNAc(b1-2)Man
# Procedure, shortened: as §1
# [35] = target: Neu5Ac(a2-6)Gal(b1-4)GlcNAc(b1-2)Man(a1-3)Man(b1-4)GlcNAc(b1-4)GlcNAc
# Procedure, shortened: as §1
# [36] = target: Neu5Ac(a2-6)Gal(b1-4)GlcNAc(b1-2)Man(a1-3)[Gal(b1-4)GlcNAc(b1-2)Man(a1-6)]Man(b1-4)GlcNAc(b1-4)GlcNAc
# Procedure, shortened: as §1
# [37] = target: Neu5Ac(a2-6)Gal(b1-4)GlcNAc(b1-2)Man(a1-3)[GlcNAc(b1-2)Man(a1-6)]Man(b1-4)GlcNAc(b1-4)GlcNAc
# Procedure, shortened: as §1
# [38] = target: Neu5Ac(a2-6)Gal(b1-4)GlcNAc(b1-2)Man(a1-3)[GlcNAc(b1-4)][Neu5Ac(a2-6)Gal(b1-4)GlcNAc(b1-2)Man(a1-6)]Man(b1-4)GlcNAc(b1-4)GlcNAc
# Procedure, shortened: as §1
# [39] = target: Neu5Ac(a2-6)Gal(b1-4)GlcNAc(b1-2)Man(a1-3)[Man(a1-6)]Man(b1-4)GlcNAc(b1-4)GlcNAc
# Procedure, shortened: as §1
# [40] = target: Neu5Ac(a2-6)Gal(b1-4)GlcNAc(b1-2)Man(a1-3)[Neu5Ac(a2-3)Gal(b1-4)GlcNAc(b1-2)Man(a1-6)]Man(b1-4)GlcNAc(b1-4)GlcNAc
# Procedure, shortened: as §1
# [41] = target: Neu5Ac(a2-6)Gal(b1-4)GlcNAc(b1-2)Man(a1-3)[Neu5Ac(a2-6)Gal(b1-4)GlcNAc(b1-2)Man(a1-6)]Man(b1-4)GlcNAc(b1-4)GlcNAc
# Procedure, shortened: as §1
# [42] = target: Neu5Ac(a2-6)Gal(b1-4)GlcNAc(b1-2)Man(a1-3)[Neu5Ac(a2-6)Gal(b1-4)GlcNAc(b1-2)Man(a1-6)]Man(b1-4)GlcNAc(b1-4)[Fuc(a1-6)]GlcNAc
# Procedure, shortened: as §1
# [43] = target: Neu5Ac(a2-6)Gal(b1-4)GlcNAc(b1-2)Man(a1-6)Man(b1-4)GlcNAc(b1-4)GlcNAc
# Procedure, shortened: as §1
# [44] = target: Neu5Ac(a2-6)Gal(b1-4)GlcNAc(b1-2)Man(a1-6)[Gal(b1-4)GlcNAc(b1-2)Man(a1-3)]Man(b1-4)GlcNAc(b1-4)GlcNAc
# Procedure, shortened: as §1
# [45] = target: Neu5Ac(a2-6)Gal(b1-4)GlcNAc(b1-2)Man(a1-6)[GlcNAc(b1-2)Man(a1-3)]Man(b1-4)GlcNAc(b1-4)GlcNAc
# Procedure, shortened: as §1
# [46] = target: Neu5Ac(a2-6)Gal(b1-4)GlcNAc(b1-2)Man(a1-6)[Man(a1-3)]Man(b1-4)GlcNAc(b1-4)GlcNAc
# Procedure, shortened: as §1
# [47] = target: Neu5Ac(a2-6)Gal(b1-4)GlcNAc(b1-2)[Neu5Ac(a2-6)Gal(b1-4)GlcNAc(b1-4)]Man(a1-3)[GlcNAc(b1-4)][Neu5Ac(a2-6)Gal(b1-4)GlcNAc(b1-2)[Neu5Ac(a2-6)Gal(b1-4)GlcNAc(b1-6)]Man(a1-6)]Man(b1-4)GlcNAc(b1-4)GlcNAc
# Procedure, shortened: as §1
# [48] = target: Neu5Ac(a2-6)Gal(b1-4)GlcNAc(b1-2)[Neu5Ac(a2-6)Gal(b1-4)GlcNAc(b1-4)]Man(a1-3)[GlcNAc(b1-4)][Neu5Ac(a2-6)Gal(b1-4)GlcNAc(b1-4)Man(a1-6)]Man(b1-4)GlcNAc(b1-4)GlcNAc
# Procedure, shortened: as §1
# [49] = target: Neu5Ac(a2-6)Gal(b1-4)GlcNAc(b1-2)[Neu5Ac(a2-6)Gal(b1-4)GlcNAc(b1-6)]Man(a1-6)[Neu5Ac(a2-6)Gal(b1-4)GlcNAc(b1-2)Man(a1-3)][GlcNAc(b1-4)]Man(b1-4)GlcNAc(b1-4)GlcNAc
# Procedure, shortened: as §1
binder,measurement,setting,value
B1,glycan array binding signal (z-score),[1],-0.382
same,glycan array binding signal (z-score),[2],-0.328
same,glycan array binding signal (z-score),[3],2.16
same,glycan array binding signal (z-score),[4],-0.331
same,glycan array binding signal (z-score),[5],7.35
same,glycan array binding signal (z-score),[6],-0.407
same,glycan array binding signal (z-score),[7],0.167
same,glycan array binding signal (z-score),[8],0.412
same,glycan array binding signal (z-score),[9],-0.266
same,glycan array binding signal (z-score),[10],-0.276
same,glycan array binding signal (z-score),[11],-0.085
same,glycan array binding signal (z-score),[12],-0.257
same,glycan array binding signal (z-score),[13],-0.368
same,glycan array binding signal (z-score),[14],-0.123
same,glycan array binding signal (z-score),[15],-0.277
same,glycan array binding signal (z-score),[16],-0.329
same,glycan array binding signal (z-score),[17],-0.398
same,glycan array binding signal (z-score),[18],-0.311
same,glycan array binding signal (z-score),[19],-0.311
same,glycan array binding signal (z-score),[20],-0.108
same,glycan array binding signal (z-score),[21],0.567
same,glycan array binding signal (z-score),[22],-0.138
same,glycan array binding signal (z-score),[23],0.02
same,glycan array binding signal (z-score),[24],-0.188
same,glycan array binding signal (z-score),[25],-0.263
same,glycan array binding signal (z-score),[26],-0.339
same,glycan array binding signal (z-score),Neu5Ac(a2-3)GalNAc,-0.225
same,glycan array binding signal (z-score),[27],-0.303
same,glycan array binding signal (z-score),[28],-0.315
same,glycan array binding signal (z-score),[29],-0.338
same,glycan array binding signal (z-score),[30],-0.601
same,glycan array binding signal (z-score),[31],-0.208
same,glycan array binding signal (z-score),Neu5Ac(a2-6)Gal,-0.208
same,glycan array binding signal (z-score),[32],-0.157
same,glycan array binding signal (z-score),Neu5Ac(a2-6)Gal(b1-4)Glc,-0.273
same,glycan array binding signal (z-score),[33],-0.243
same,glycan array binding signal (z-score),[34],-0.236
same,glycan array binding signal (z-score),[35],-0.165
same,glycan array binding signal (z-score),[36],-0.061
same,glycan array binding signal (z-score),[37],-0.527
same,glycan array binding signal (z-score),[38],-0.22
same,glycan array binding signal (z-score),[39],-0.377
same,glycan array binding signal (z-score),[40],-0.074
same,glycan array binding signal (z-score),[41],-0.327
same,glycan array binding signal (z-score),[42],0.33
same,glycan array binding signal (z-score),[43],-0.317
same,glycan array binding signal (z-score),[44],-0.101
same,glycan array binding signal (z-score),[45],-0.44
same,glycan array binding signal (z-score),[46],-0.141
same,glycan array binding signal (z-score),[47],-0.419
same,glycan array binding signal (z-score),[48],-0.622
same,glycan array binding signal (z-score),[49],-0.44
